Experimental data from patent US20210054071A1 (NANJING LEGEND BIOTECH, published 2021).
Where two headings read alike, the source gives them in different places.

T1: human TIGIT expressed on CHO-K1 cells (human, UniProt Q495A1 22-244)
T1 construct: also called CHO/human TIGIT cells; CHO-TIGIT cells
T1 sequence: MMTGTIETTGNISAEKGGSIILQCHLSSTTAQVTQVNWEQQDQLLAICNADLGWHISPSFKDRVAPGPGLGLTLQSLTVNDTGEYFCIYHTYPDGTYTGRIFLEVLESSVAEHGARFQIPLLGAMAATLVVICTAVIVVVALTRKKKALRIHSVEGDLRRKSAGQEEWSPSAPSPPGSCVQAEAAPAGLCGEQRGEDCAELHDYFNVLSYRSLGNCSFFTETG

T2: TIGIT on TIGIT effector cells (UniProt Q495A1 22-244, limits assumed)
T2 sequence (looked up): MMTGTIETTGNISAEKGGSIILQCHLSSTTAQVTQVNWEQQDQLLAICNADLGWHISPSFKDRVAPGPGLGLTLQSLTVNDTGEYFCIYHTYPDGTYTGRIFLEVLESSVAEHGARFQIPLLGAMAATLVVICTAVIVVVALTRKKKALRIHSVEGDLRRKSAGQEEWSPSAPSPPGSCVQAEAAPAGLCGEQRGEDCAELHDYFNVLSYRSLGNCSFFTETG

T3: human TIGIT-His protein (Acrobiosystems) (human, UniProt Q495A1 22-141)
T3 construct: Bought; Genbank NP_776160
T3 sequence: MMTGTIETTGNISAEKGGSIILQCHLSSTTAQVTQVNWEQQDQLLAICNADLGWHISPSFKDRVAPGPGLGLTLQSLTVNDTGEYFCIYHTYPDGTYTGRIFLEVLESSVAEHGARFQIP

T4: mouse TIGIT-His protein (Acrobiosystems) (mouse, UniProt P86176 29-148, limits assumed)
T4 construct: bought
T4 sequence (looked up): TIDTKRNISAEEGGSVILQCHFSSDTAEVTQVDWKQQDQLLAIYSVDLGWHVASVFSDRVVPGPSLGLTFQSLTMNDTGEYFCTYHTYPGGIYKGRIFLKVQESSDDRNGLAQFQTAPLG


Experiments:
[1] = molecular target: T1, human TIGIT expressed on CHO-K1 cells; test: FACS, CHO-K1 cells expressing human TIGIT
[2] = molecular target: T1, human TIGIT expressed on CHO-K1 cells; test: FACS, CHO-K1 cells expressing human TIGIT; remark: listed apart in the source
[3] = molecular target: T2, TIGIT on TIGIT effector cells; test: cell-based or functional assay
[4] = molecular target: T2, TIGIT on TIGIT effector cells; test: cell-based or functional assay; remark: listed apart in the source
[5] = molecular target: T3, human TIGIT-His protein (Acrobiosystems); test: SPR (BIAcore T200), target amine-coupled to CM5 chip
[6] = molecular target: T5, cynomolgus TIGIT-His protein (Acrobiosystems) (cynomolgus, UniProt A0A7N9I9V4 89-209); test: as above
T5 construct: bought

[7] = molecular target: T6, cynomolgus TIGIT expressed on CHO-K1 cells (cynomolgus, UniProt A0A7N9I9V4 89-312); test: FACS, CHO-K1 cells expressing cynomolgus TIGIT
T6 construct: whole, on cells

[8] = molecular target: T1, human TIGIT expressed on CHO-K1 cells; test: FACS competition, biotinylated CD155-Fc on CHO/human TIGIT cells
[9] = molecular target: T3, human TIGIT-His protein (Acrobiosystems); test: SPR (BIAcore T200), target amine-coupled to CM5 chip; remark: listed apart in the source
[10] = molecular target: T5, cynomolgus TIGIT-His protein …; test: as above; remark: listed apart in the source
[11] = molecular target: T1, human TIGIT expressed on CHO-K1 cells; test: FACS competition, biotinylated CD155-Fc on CHO/human TIGIT cells; remark: listed apart in the source
[12] = molecular target: T6, cynomolgus TIGIT expressed on CHO-K1 …; test: FACS, CHO-K1 cells expressing cynomolgus TIGIT; remark: listed apart in the source
[13] = molecular target: T4, mouse TIGIT-His protein (Acrobiosystems); test: SPR as in Example 2
[14] = molecular target: T2, TIGIT on TIGIT effector cells; test: cell-based or functional assay; remark: listed apart in the source
[15] = molecular target: T3, human TIGIT-His protein (Acrobiosystems); test: SPR as in Example 2
[16] = molecular target: T4, mouse TIGIT-His protein (Acrobiosystems); test: SPR as in Example 2; remark: listed apart in the source
[17] = molecular target: T4, mouse TIGIT-His protein (Acrobiosystems); test: SPR (BIAcore T200), target amine-coupled to CM5 chip

Binder	EC50 [1]	EC50 [2]	IL-2 release assay EC50 [4]	Reporter assay EC50 [4]	Kd [5]	koff [5]	kon [5]	Kd [6]	koff [6]	kon [6]	EC50 [11]	EC50 [12]	further results
AS19858 sdAb-Fc (IgG1) fusion protein (Fc fusion, dimeric form, human IgG1 Fc; also called AS19858-Fc) QIQLVESGGGSVQAGGSLRLSCATSGYTYRQKCMGWFRQAPGKEREGVAAIYTSVGGSRTYVADSAKGRFTVSQDNAKNTVYLQMNSLKPEDTAMYYCAAKSPYDGACSYEADFTYWGQGTQVTVSS[human IgG1 Fc not written out]	0.223 nM												
AS19584 sdAb-Fc (inert IgG1) fusion protein (Fc fusion, effectorless human IgG1 Fc, dimeric form; also called AS19584-Fc (inert IgG1); AS19584 (inert IgG1)) QVQLAESGGGSVQAGGSLRLSCAASGYKYGVYSMGWFRLAPGKEREGVAAICSGGRTTYSDSVKGRFTISKDSANQILYLQMNSLKPEDTAMYYCAARPLWTGDCDLSSSWYKTWGQGTQVTVSS[human IgG1 Fc with changes not written out]													Kd [13]: 0.71 nM
AS19584VH28 sdAb-Fc (IgG4) fusion protein (Fc fusion, dimeric form, human IgG4 Fc; also called AS19584VH28 (IgG4); AS19584VH28 IgG4) EVQLVESGGGLVQPGGSLRLSCAASGYKYGVYSMGWFRQAPGKGLEGVSAICSGGRTTYSDSVKGRFTISRDNSNQILYLQMNSLRAEDTAVYYCAARPLWTGDCDLSSSWYKTWGQGTLVTVSS[human IgG4 Fc with S228P (EU numbers) not written out]													TIGIT Reporter assay EC50 [14]: 4.06 nM; Kd [15]: 0.68 nM; Kd [16]: 1.1 nM
AS19886VH5 sdAb-Fc (IgG1) fusion protein (Fc fusion, humanized sdAb fused to human IgG1 Fc, dimeric form; also called AS19886VH5-Fc) EVQLVESGGGLVQPGGSLRLSCAASGYTYSRKCRGWFRQAPGKGLEGVATLYTSSGGTYFDTYADSVRGRFTISRDNSKNTVYLQMNSLRAEDTGVYYCAARLSTDFCGPRADFDYWGQGTLVTVSS[human IgG1 Fc not written out]		0.657 nM	3.15 nM	3.54 nM	2.9 nM	0.0016 s⁻¹	550000 M⁻¹ s⁻¹	280 nM	0.027 s⁻¹	95000 M⁻¹ s⁻¹	2.82 nM	2.06 nM	
AS19584VH28 sdAb-Fc (IgG1) fusion protein (Fc fusion, humanized sdAb fused to human IgG1 Fc, dimeric form; also called AS19584VH28-Fc; AS19584VH28 (IgG1)) EVQLVESGGGLVQPGGSLRLSCAASGYKYGVYSMGWFRQAPGKGLEGVSAICSGGRTTYSDSVKGRFTISRDNSNQILYLQMNSLRAEDTAVYYCAARPLWTGDCDLSSSWYKTWGQGTLVTVSS[human IgG1 Fc not written out]		0.432 nM	0.818 nM	2.12 nM	0.29 nM	0.00021 s⁻¹	730000 M⁻¹ s⁻¹	34 nM	0.012 s⁻¹	340000 M⁻¹ s⁻¹	1.65 nM	1.02 nM	Kd [17]: 0.78 nM; koff [17]: 0.00049 s⁻¹; kon [17]: 620000 M⁻¹ s⁻¹; TIGIT Reporter assay EC50 [14]: 3.12 nM; Kd [15]: 0.29 nM; Kd [16]: 1 nM
AS19852 sdAb-Fc (IgG1) fusion protein (Fc fusion, dimeric form, human IgG1 Fc; also called AS19852-Fc) QVQLAESGGGSVQTGGSLRLSCAASGNTGSRRYVAWFRQAPGKEREGVARLITDSGSTYYADSVKGRFIISQDNAKNTVYLQMNTLKPEDTAMYYCAEELAPARSGGIWFGGRYFSYWGQGTQVTVSS[human IgG1 Fc not written out]	0.383 nM												

More lines, main results first:

EC50 [1]	EC50 [2]	IL-2 release assay EC50 [4]	Reporter assay EC50 [4]	Kd [5]	koff [5]	kon [5]	Kd [6]	koff [6]	kon [6]	EC50 [11]	EC50 [12]	Binder	further results
0.34 nM	0.541 nM	2.64 nM	3.16 nM	2.6 nM	0.0023 s⁻¹	880000 M⁻¹ s⁻¹	76 nM	0.011 s⁻¹	140000 M⁻¹ s⁻¹	2.38 nM	1.35 nM	AS19886 sdAb-Fc (IgG1) fusion protein (Fc fusion, dimeric form, human IgG1 Fc; also called AS19886-Fc; A519886-Fc) QVQLVESGGGSVQAGGSLRLSCVASGYTYSRKCRGWFRQAPGKEREGVATLYTSSGGTYFDTYADSVRGRFTISQDNAKNTVYLQMNNLKPEDSGIYYCAARLSTDFCGPRADFDYWGQGTQVTVSS[human IgG1 Fc not written out]	TIGIT/CD155 blockade reporter assay, EC50 [3]: 3.04 nM; TIGIT/CD155 blockade reporter assay, Signal span [3]: 102; EC50 [7]: 1.17 nM; EC50 [8]: 0.643 nM; Kd [9]: 1.9 nM; koff [9]: 0.0019 s⁻¹; kon [9]: 1e+06 M⁻¹ s⁻¹; Kd [10]: 82 nM; koff [10]: 0.016 s⁻¹; kon [10]: 190000 M⁻¹ s⁻¹
0.876 nM												AS20160 sdAb-Fc (IgG1) fusion protein (Fc fusion, dimeric form, human IgG1 Fc; also called AS20160-Fc; A520160-Fc) EVQLAESGGGSVQAGGSLRLSCTTSGYTYSRNCMGWFRQAPGKEREGVATIYVSAASTSFATYADSVKGRFTISLDKAKNTVYLQMNSLKPEDTAMYYCAADPPDRISNPCGPRRPDFGYWGQGTQVTVSS[human IgG1 Fc not written out]	TIGIT/CD155 blockade reporter assay, EC50 [3]: 5.46 nM; TIGIT/CD155 blockade reporter assay, Signal span [3]: 88.8; EC50 [7]: 14.5 nM; EC50 [8]: 1.18 nM; Kd [9]: 2.7 nM; koff [9]: 0.0019 s⁻¹; kon [9]: 680000 M⁻¹ s⁻¹; Kd [10]: 200 nM; koff [10]: 0.025 s⁻¹; kon [10]: 130000 M⁻¹ s⁻¹
1 nM												AS19888 sdAb-Fc (IgG1) fusion protein (Fc fusion, dimeric form, human IgG1 Fc; also called AS19888-Fc) QVQLAESGGGSVQTGGSLRLSCEASGVAASGYCMAWFRQAPGKERERVAAISSNDLVAYADSVKGRFTISKDNAKTTLYLQMNNLKPEDTAMYYCAADGGYGGYCGRLRPGTGYWGQGTQVTVSS[human IgG1 Fc not written out]	
	0.676 nM	5.85 nM	3.27 nM	2.4 nM	0.0017 s⁻¹	730000 M⁻¹ s⁻¹	160 nM	0.023 s⁻¹	140000 M⁻¹ s⁻¹	2.49 nM	2.28 nM	AS19886VH8 sdAb-Fc (IgG1) fusion protein (Fc fusion, humanized sdAb fused to human IgG1 Fc, dimeric form; also called AS19886VH8-Fc) EVQLVESGGGLVQPGGSLRLSCAASGYTYSRKCRGWFRQAPGKGLEGVATLYTSSGGTYFDTYADSVRGRFTISQDNSKNTLYLQMNSLRAEDTAVYYCAARLSTDFCGPRADFDYWGQGTLVTVSS[human IgG1 Fc not written out]	
0.497 nM												AS19887 sdAb-Fc (IgG1) fusion protein (Fc fusion, dimeric form, human IgG1 Fc; also called AS19887-Fc) QVQLAESGGGSVQAGGSLRLSCAASGVTSDSYHMGWFRQAPGKEREGVAVIKTGDASTYYTDSVKGRFTISQDNAKNTLYLQMNSLKPEDTAMYYCAARRGWVPAPLSQYNYNYWGQGTQVTVSS[human IgG1 Fc not written out]	
